Experimental findings from paper PMC4336329 (PLoS ONE, 2015) are described below.

Out of some 310,000 compounds screened, about 2,200 (0.71%) showed an effect of 50% or more. Effects have a minus sign here. The list shows a part of the results.

The target of this assay is human ether-à-go-go-related gene (hERG) potassium channel (human, UniProt Q12809). Description: primary screen, population patch clamp on CHO cells stably expressing hERG.
Chain of human ether-à-go-go-related gene (hERG) potassium channel (Q12809 whole entry, looked up): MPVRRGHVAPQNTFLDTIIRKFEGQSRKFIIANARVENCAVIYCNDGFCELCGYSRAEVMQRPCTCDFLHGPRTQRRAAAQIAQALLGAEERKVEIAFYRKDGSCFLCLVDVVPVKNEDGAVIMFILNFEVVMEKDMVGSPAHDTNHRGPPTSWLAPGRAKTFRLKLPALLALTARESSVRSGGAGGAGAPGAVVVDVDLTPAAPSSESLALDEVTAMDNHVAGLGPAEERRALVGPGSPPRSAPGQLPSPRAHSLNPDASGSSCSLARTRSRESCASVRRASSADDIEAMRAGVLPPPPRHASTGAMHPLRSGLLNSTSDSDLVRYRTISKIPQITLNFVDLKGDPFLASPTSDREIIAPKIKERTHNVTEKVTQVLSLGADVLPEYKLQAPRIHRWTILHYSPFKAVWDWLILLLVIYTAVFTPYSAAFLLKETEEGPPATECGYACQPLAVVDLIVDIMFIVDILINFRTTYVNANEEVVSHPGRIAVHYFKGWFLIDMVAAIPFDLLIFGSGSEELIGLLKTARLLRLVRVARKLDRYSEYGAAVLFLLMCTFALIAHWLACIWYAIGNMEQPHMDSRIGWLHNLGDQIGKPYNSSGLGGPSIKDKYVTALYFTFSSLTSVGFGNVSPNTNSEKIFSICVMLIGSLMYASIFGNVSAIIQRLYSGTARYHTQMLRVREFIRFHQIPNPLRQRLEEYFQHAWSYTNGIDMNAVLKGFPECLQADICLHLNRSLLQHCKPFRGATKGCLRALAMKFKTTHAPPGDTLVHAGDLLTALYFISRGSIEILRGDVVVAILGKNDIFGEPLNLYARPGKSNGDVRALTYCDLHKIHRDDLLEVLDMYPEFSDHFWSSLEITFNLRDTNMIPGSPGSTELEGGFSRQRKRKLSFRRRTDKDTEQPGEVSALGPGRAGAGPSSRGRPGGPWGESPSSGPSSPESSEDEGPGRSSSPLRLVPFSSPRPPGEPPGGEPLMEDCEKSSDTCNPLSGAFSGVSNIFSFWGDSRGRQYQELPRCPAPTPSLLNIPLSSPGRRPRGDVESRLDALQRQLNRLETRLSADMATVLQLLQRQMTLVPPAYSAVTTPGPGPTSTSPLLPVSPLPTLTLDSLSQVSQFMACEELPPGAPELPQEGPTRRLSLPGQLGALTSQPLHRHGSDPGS
In the case of `CCN(CC)P(=O)(Nc1ccc(SC(F)F)cc1)c1ccc(N(C)C)cc1NC(=O)c1ccco1` (stereo not drawn), the “hERG current change (%, negative = inhibition) at 1uM” value is 9.69%.

As to `O=C(Cn1cnc2ccccc21)c1ccccc1`, the “hERG current change (%, negative = inhibition) at 1uM” value is given as 15.6%.

With `COc1cc(C=O)cc(Br)c1OCC(N)=O`, the “hERG current change (%, negative = inhibition) at 1uM” value worked out at 11.2%.

For the compound `O=C(Nc1cccc(C(=O)Nc2ccccc2C(=O)O)c1)c1cccc(Cl)c1`, the “hERG current change (%, negative = inhibition) at 1uM” value was determined as 12.2%.

As to `CCOC(=O)c1c(C)[nH]c(C)c1S(=O)(=O)N(C)CC(=O)N(C)Cc1ccccc1`, the “hERG current change (%, negative = inhibition) at 1uM” value was 22.5%.

Regarding `CN1CC(C(=O)c2cccc(C(F)(F)F)c2)C(c2ccc(Cl)cc2)C1` (stereo not drawn), the “hERG current change (%, negative = inhibition) at 1uM” value was 25.4%.

Consider `Cc1ccc(CNc2nc3ccccc3n3nnnc23)cc1`, for which the “hERG current change (%, negative = inhibition) at 1uM” value is listed as 14.9%.

In the case of `O=C(NCc1ccco1)C(=O)NCC1OCCN1C(=O)c1ccc(Cl)cc1` (stereo not drawn), the “hERG current change (%, negative = inhibition) at 1uM” value is recorded as 6.08%.

For `CC(Oc1ccc2c(c1)c1ccnc3c4ccccc4c(=O)n2c13)C(=O)NCCN1CCOCC1` (stereo not drawn), the “hERG current change (%, negative = inhibition) at 1uM” value was 10.5%.

Consider `Cc1cc(NNC(=O)c2cccc(C(F)(F)F)c2)nc2c1c(C)nn2C`, for which the “hERG current change (%, negative = inhibition) at 1uM” value turned out to be 3.71%.

In the case of `CCn1nnnc1SCC(=O)N1c2ccccc2Sc2ccccc21`, the “hERG current change (%, negative = inhibition) at 1uM” value is reported as 13.9%.

With `COC(=O)c1sccc1Oc1ccc(F)cc1[N+](=O)[O-]`, the “hERG current change (%, negative = inhibition) at 1uM” value came out at 10%.

`Cc1nc2ccccc2n1CC(=O)N1CC(=O)Nc2ccccc21`: the “hERG current change (%, negative = inhibition) at 1uM” value worked out at 18.6%.

Take `N#CCn1cnc2sc(-c3ccccc3)cc2c1=O`: the “hERG current change (%, negative = inhibition) at 1uM” value is reported as 10.3%.

Turning to `CCc1ccccc1NC1c2ccccc2C(=O)N1Cc1ccco1` (stereo not drawn), the “hERG current change (%, negative = inhibition) at 1uM” value was -1.49%.

Turning to `COc1ccccc1S(=O)(=O)Cc1ccc(C(=O)NC2CC2)o1`, the “hERG current change (%, negative = inhibition) at 1uM” value was 13.1%.

With `COC(=O)Cn1c(CCC(=O)O)ccc1-c1ccccc1`, the “hERG current change (%, negative = inhibition) at 1uM” value worked out at 10.4%.

On to `CCOc1ccc(C(C)(C)C)cc1S(=O)(=O)n1nc(C)cc1C`, for which the “hERG current change (%, negative = inhibition) at 1uM” value is given as -3.33%.

For `Cn1cccc1/C=C(\C#N)C(N)=S`, the “hERG current change (%, negative = inhibition) at 1uM” value was found to be 9.2%.

As to `N#CC1=C(N)Oc2n[nH]c(-c3cccnc3)c2C1c1ccc([N+](=O)[O-])o1` (stereo not drawn), the “hERG current change (%, negative = inhibition) at 1uM” value amounted to 3.89%.

In the case of `CCCNC(=O)COC(=O)c1ccc(N2CCCC2)c([N+](=O)[O-])c1`, the “hERG current change (%, negative = inhibition) at 1uM” value is recorded as -3.49%.

As for `Cc1[nH]c2ccccc2c1C(=O)CN1CCN(c2ccc(Cl)cc2)CC1`, the “hERG current change (%, negative = inhibition) at 1uM” value is 9.25%.

As for `Cc1cc(NC(=O)C(C)SCC(=O)Nc2nnc(CC(C)C)s2)no1` (stereo not drawn), the “hERG current change (%, negative = inhibition) at 1uM” value was found to be 9.37%.

In the case of `COc1ccc(Br)cc1/C=N/NC(=O)c1cc(OC)c(OC)c(OC)c1`, the “hERG current change (%, negative = inhibition) at 1uM” value stood at 14.2%.

Turning to `CC(=O)C1C(=O)c2c(cccc2[N+](=O)[O-])C1=Nc1ccccc1C` (stereo not drawn), the “hERG current change (%, negative = inhibition) at 1uM” value was determined as 11%.

On to `COc1ccccc1C(CNC(=O)c1cccc(NS(=O)(=O)c2ccc(Br)cc2)c1)N(C)C` (stereo not drawn), for which the “hERG current change (%, negative = inhibition) at 1uM” value is -6.25%.

In the case of `O=C1c2ccccc2C(=O)N1CC(O)Cn1nnc2ccccc21` (stereo not drawn), the “hERG current change (%, negative = inhibition) at 1uM” value turned out to be 10.4%.

On to `CC(C#N)Sc1nnc(-c2ccccc2F)n1C1CC1` (stereo not drawn), for which the “hERG current change (%, negative = inhibition) at 1uM” value came to 17%.

On to `Cc1ccccc1CC(=O)N1CC(C)OC(C)C1` (stereo not drawn), for which the “hERG current change (%, negative = inhibition) at 1uM” value is 12.8%.

For `C[N+]1=C2CCCCCN2C(O)(c2ccccc2)C1.[I-]` (stereo not drawn), the “hERG current change (%, negative = inhibition) at 1uM” value was 11.8%.

Take `Cn1cc(NC(=O)OCc2ccc(Cl)cc2)c(C(F)(F)F)n1`: the “hERG current change (%, negative = inhibition) at 1uM” value is given as 12.9%.

For `COC(=O)c1cc(NC(=O)CN2CCC(C(N)=O)(N3CCCCC3)CC2)cc(C(=O)OC)c1`, the “hERG current change (%, negative = inhibition) at 1uM” value is listed as 5.65%.

For `CC(C)CCNC(=O)C(C)N(Cc1ccc(F)cc1)C(=O)c1ccc(CN2CCOCC2)o1` (stereo not drawn), the “hERG current change (%, negative = inhibition) at 1uM” value came to 11.9%.

Regarding `C[C@H]1CC[C@@H]2[C@@H](C)[C@H]3[C@H](C[C@H]4[C@@H]5CC=C6C[C@@H](O[C@@H]7O[C@H](CO)[C@H](O)[C@H](O[C@@H]8O[C@H](CO)[C@@H](O)[C@H](O)[C@H]8O)[C@H]7O[C@@H]7O[C@@H](C)[C@H](O)[C@@H](O)[C@H]7O)CC[C@]6(C)[C@H]5CC[C@]34C)N2C1`, the “hERG current change (%, negative = inhibition) at 1uM” value is listed as 13.4%.

For the compound `CCc1ccccc1OCC(=O)N(CC)CC(=O)NCc1ccc(F)cc1`, the “hERG current change (%, negative = inhibition) at 1uM” value is on record as 5.82%.

On to `COc1ccc(-c2noc(CSc3nc4sc(C)c(C)c4c(=O)n3-c3ccccc3)n2)cc1`, for which the “hERG current change (%, negative = inhibition) at 1uM” value amounted to 5.01%.

Take `S=C(NCc1ccccc1)N1CCN(c2ccccc2)CC1`: the “hERG current change (%, negative = inhibition) at 1uM” value is listed as 12.4%.

As for `CC(C)(C)c1ccc(C(=O)N2CCC(C(=O)NC3CC3)CC2)cc1`, the “hERG current change (%, negative = inhibition) at 1uM” value was found to be 8.83%.

Consider `NC1=NC2(CCCC2)n2c(nc3ccccc32)N1`, for which the “hERG current change (%, negative = inhibition) at 1uM” value worked out at 8.12%.

As to `CC(C)[C@@H](C(=O)N1CCN(Cc2ccc3c(c2)OCO3)CC1)n1nnc2ccccc2c1=O`, the “hERG current change (%, negative = inhibition) at 1uM” value was 6.79%.

For `CC(=O)c1cccc(OCCCOc2cccc3cccnc23)c1`, the “hERG current change (%, negative = inhibition) at 1uM” value came to 10.6%.

In the case of `COc1cc(OC)cc(C(=O)N2CCN(S(=O)(=O)c3ccc(Cl)s3)CC2)c1`, the “hERG current change (%, negative = inhibition) at 1uM” value is -1.92%.

On to `COc1cc(OC)cc(-n2c3nc4ccccc4nc3c3c(=O)n(CC4CCCO4)cnc32)c1` (stereo not drawn), for which the “hERG current change (%, negative = inhibition) at 1uM” value is reported as 6.72%.

Take `O=C(Nc1ccc2c(c1)OCCO2)c1ccc(Br)s1`: the “hERG current change (%, negative = inhibition) at 1uM” value is on record as 12.5%.

On to `COc1ccc(CCN(C)C2CCCN(S(=O)(=O)C(C)C)C2)cc1OC` (stereo not drawn), for which the “hERG current change (%, negative = inhibition) at 1uM” value was 10.6%.

On to `O=C(Cc1ccccc1)NCC(=O)N/N=C/c1cccnc1`, for which the “hERG current change (%, negative = inhibition) at 1uM” value was found to be 15.4%.

Turning to `Cc1[nH][nH]c(=O)c1C(c1c(C)[nH][nH]c1=O)c1cn(Cc2cccc3ccccc23)c2ccccc12`, the “hERG current change (%, negative = inhibition) at 1uM” value was 13.9%.

With `Cc1[nH]n(C(C)(C)C)c(=O)c1Sc1ccccc1`, the “hERG current change (%, negative = inhibition) at 1uM” value is on record as 5.51%.

Consider `Cc1cc(C(=O)NC2CCCc3ccccc32)no1` (stereo not drawn), for which the “hERG current change (%, negative = inhibition) at 1uM” value is on record as 6.77%.

Turning to `COc1cc(/C=N/n2cnnc2)ccc1Oc1nc(Cl)ncc1F`, the “hERG current change (%, negative = inhibition) at 1uM” value was 1.59%.

`Oc1ccc(Br)cc1-c1nc2cnccn2c1NC1CCCC1`: the “hERG current change (%, negative = inhibition) at 1uM” value worked out at 7.47%.

As for `CC(=O)N1CCN(S(=O)(=O)c2cccc(C(=O)Nc3ccc(C)cn3)c2)CC1`, the “hERG current change (%, negative = inhibition) at 1uM” value is reported as 0.445%.

Consider `CN(CCO)S(=O)(=O)c1ccc2c(c1)C(=O)c1cc(S(=O)(=O)N(C)CCO)ccc1-2`, for which the “hERG current change (%, negative = inhibition) at 1uM” value stood at 11.3%.

On to `CCOC(=O)c1cc2c(nc1C)-c1cc(Cl)cc(Cl)c1OC2O` (stereo not drawn), for which the “hERG current change (%, negative = inhibition) at 1uM” value is reported as 6.68%.
